# Laboratory results: PubChem BioAssay AID493208 (National Center for Advancing Translational Sciences (NCATS), 2011)
# Screen size: about 44,000 compounds; about 340 (0.77%) were called active. About 5% were inconclusive and are not listed. The call rests on the fitted dose curve; in most records, active means well fitted inhibition curve with a large enough effect; inconclusive means small, poorly fitted or top-dose-only effect; inactive means flat fitted curve, though single readings scatter. This is one part of the list.
# Assay: Acumen qHTS Assay for Inhibitors of the mTORC1 Signaling Pathway in MEF (Tsc2-/-, p53-/-) Cells: Sytravon;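 further: plate controls were DMSO for no effect and rapamycin for full effect; nearly all actives have a fitted effect of over 50% in size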
# Conditions: phospho-rpS6 immunofluorescence/PI, 24 h; series mostly up to 38.3 µM; activity change, negative = inhibition: at the top concentration
# Summary of the method: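 Immunofluorescence of rpS6 phosphorylation in Tsc2-/-, p53-/- MEFs after 24 h compound exposure, normalized to propidium iodide signal. Activity is expressed as % positive cells, thresholded with 7.5 nM rapamycin.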
row,Structure (SMILES),"activity change, negative = inhibition"
1,CCn1cc(S(=O)(=O)c2cc(C)cc(C)c2)c(=O)c2cc(F)c(N3CCC(C)CC3)cc21,inactive: 0.889%
2,Cc1ccc2nc(-c3ccc(C)c(NC(=O)CSc4ccc(Cl)cc4)c3)oc2c1,inactive: -2.1%
3,CCOc1ccc(N(C(=O)c2ccc(C)cc2)S(=O)(=O)c2ccc3c(c2)n(C)c(=O)n3C)cc1,inactive: 4.83%
4,Cc1ccc2cccc(NC(=O)c3ccc(-c4cc(Cl)ccc4Cl)o3)c2n1,inactive: 14.4%
5,Cc1ccc(Cl)cc1N1CCN(C(=O)Cn2cnc3nc4c(cc3c2=O)CCCC4)CC1,inactive: 4.07%
6,Cc1ccc(C)n1-c1nnc(N2CCCC(C(=O)NCc3ccc(F)cc3)C2)s1 (configuration not stated),inactive: -1.84%
7,O=C(NCc1ccc(Cl)cc1)c1cc2ccccc2o1,inactive: 2.65%
8,CCN(CC)C(=O)Cn1c(=O)n(CCCCCC(=O)NCc2ccccc2Cl)c(=O)c2sccc21,inactive: 2.68%
9,COc1ccc(OC)c(NC(=O)c2ccc3c(c2)c(C)c(C)n3Cc2ccc(F)cc2)c1,inactive: -10.7%
10,O=C(NCc1cccc(Br)c1)c1cccn1-c1nnc(N2CCCCC2)s1,inactive: -5.23%
11,Cc1ccc(NC(=O)Cn2c(C)cc(C)c(C#N)c2=O)cc1F,inactive: 5.97%
12,Cc1cc(C)c(/C=C/c2onc(C)c2S(=O)(=O)N2CCC(C(=O)N3CCN(c4ccc(Cl)cc4)CC3)CC2)c(C)c1,inactive: 3.75%
13,Cc1ccc(C(=O)Nc2nc3n(n2)C(c2ccccc2)C=C(c2ccccc2)N3)cc1 (configuration not stated),inactive: -6.14%
14,CC1CCc2onc(C(=O)N3CCN(c4cccc(C(F)(F)F)c4)CC3)c2C1 (configuration not stated),inactive: 5.06%
15,COc1ccc(-c2nc3ccccc3s2)cc1NC(=O)c1cc2ccccc2o1,inactive: -0.562%
16,Cc1ccc(NC(=O)CCNS(=O)(=O)c2cccc3nsnc23)cc1,inactive: -10.1%
17,CN(CC(=O)Nc1ccc(F)cc1F)S(=O)(=O)c1ccc(C(=O)N2CCOCC2)s1,inactive: 0%
18,CN1CCN(C(c2cccc(Br)c2)c2sc3nc(-c4ccco4)nn3c2O)CC1 (configuration not stated),inactive: 1.2%
19,CCC(=O)N1CCc2cc(Br)cc(S(=O)(=O)CCC(=O)NCCc3ccccc3Cl)c21,inactive: 0.616%
20,CCOc1ccc(-c2nonc2NC(=O)c2ccc(C)cc2)cc1OCC,inactive: 0.214%
21,O=C(Cc1csc2ccccc12)NCc1ccccc1F,inactive: -0.675%
22,CCC(=O)OCCCNc1nc(-c2ccc(Cl)cc2)nc2ccccc12,inactive: -3.18%
23,CC(=O)N1CCCc2cc(S(=O)(=O)N3CCN(c4ccc(F)cc4)CC3)ccc21,inactive: -7.08%
24,CCc1cccc(-n2nnc(-c3nc(-c4cccs4)no3)c2N)c1,inactive: -8.6%
25,COc1ccc(NC(=O)c2noc3c2CSc2ccccc2-3)cc1Cl,inactive: 2.38%

row,Structure (SMILES),"activity change, negative = inhibition"
1,Clc1ccc2nc(-c3ccc(Br)o3)c(Nc3ccc4c(c3)OCCO4)n2c1,inactive: 3.82%
2,COc1cccc(OC)c1C(=O)Nc1cccc(-c2nc3cc(C)cc(C)c3o2)c1,inactive: -1.92%
3,O=C(CSc1nc2ccsc2c(=O)n1Cc1ccccc1F)NCc1ccccc1,inactive: -9.29%
4,CCc1ccc(NC(=O)CN2C(=O)C(c3ccccc3)=NC23CCCCCC3)cc1,inactive: -2.68%
5,CCc1ccc(NC(=O)N(Cc2ccc(C)cc2)Cc2cccn2-c2nnc(N3CCCC3=O)s2)cc1,inactive: -7.96%
6,Cc1ccc2nc(CSc3nnc(NC(=O)COc4ccccc4)s3)cc(=O)n2c1,inactive: 0%
7,CCOC(=O)c1c(C)c(-c2ccccc2)n(CC(=O)NCCc2ccc(C)cc2)c1C,inactive: -4.26%
8,CCCCc1ccc(NC(=O)COc2cccc3c(=O)n(C)ccc23)cc1,inactive: -2.84%
9,CCOC(=O)c1ccc(NC(=O)c2cc(=O)c3cc(CC)ccc3o2)cc1,inactive: 1.3%
10,Cc1ccc(NC(=O)N2CCC(CN3CCC(C)CC3)CC2)cc1F,inactive: -2.62%
11,COc1ccc(-c2cc(C(F)(F)F)nc(SCC(=O)NCCc3ccc(OC)c(OC)c3)n2)cc1,inactive: -1.19%
12,Cc1ccc(NC(=O)C2CCCN(c3nnc(-n4c(C)ccc4C)s3)C2)cc1Cl (configuration not stated),inactive: -8.39%
13,COc1cccc(CNC(=O)C(NS(=O)(=O)c2ccc3nc(C)sc3c2)C(C)C)c1 (configuration not stated),inactive: -4.68%
14,Cc1ccc(C(CC(=O)Nc2cc(C)cc(C)c2)N2Cc3ccccc3C2=O)cc1 (configuration not stated),inactive: -8.36%
15,Cc1cccc(NC(=O)CSc2nnc(C)c(=O)[nH]2)c1,inactive: -1.72%
16,CCS(=O)(=O)NCC(c1ccco1)N1CCN(c2ccc(OC)cc2)CC1 (configuration not stated),inactive: -1.39%
17,CCN(CC)c1ccc(-n2nc3cc(C)c(NC(=O)c4ccccc4F)cc3n2)cc1,inactive: 0.419%
18,Cc1ccccc1CN1c2ccccc2-c2nc(SCC(=O)NCCc3ccccc3)ncc2S1(=O)=O,inactive: 8.34%
19,CCOc1ccc(NC(=O)c2ccc(F)c(S(=O)(=O)NCc3ccc4c(c3)OCO4)c2)cc1,inactive: -15.1%
20,COc1ccc(-n2c(SCc3ccccc3F)nc3c([nH]c4ccccc43)c2=O)cc1,inactive: -11.5%
21,O=C(NC1CC(=O)N(c2ccc(Cl)cc2)C1)c1ccc(S(=O)(=O)N2CCCC2)cc1 (configuration not stated),inactive: 1.95%
22,Cc1ccccc1CSc1nnc2[nH]c(=O)cc(C)n12,inactive: 1.35%
23,O=C(Cn1cc(S(=O)(=O)Cc2ccc(F)cc2)c2ccccc21)NCc1ccccc1Cl,inactive: -3.51%
24,Cc1oc2ncn(CC(C)C)c(=O)c2c1C(=O)NCCCN(Cc1ccccc1)C(C)C,inactive: -3.67%
25,CCc1cccc(C)c1NC(=O)CSc1nnc(N)s1,inactive: -4.85%

row,Structure (SMILES),"activity change, negative = inhibition"
1,COc1ccc(CCNC(=O)CS(=O)Cc2nc(-c3ccc(C)cc3)oc2C)c(OC)c1 (configuration not stated),inactive: -7.82%
2,COc1ccc(CCNC(=O)C(=O)NCC(c2ccco2)S(=O)(=O)c2ccccc2)cc1OC (configuration not stated),inactive: -0.558%
3,O=C(Cn1c(=O)nc(-c2ccccc2)c2ccccc21)NCCCc1ccccc1,inactive: -15.5%
4,Cc1ccccc1N1CCN(S(=O)(=O)c2nnc(NC(=O)c3ccc(Cl)cc3)s2)CC1,inactive: -4.97%
5,CCOc1ccccc1NS(=O)(=O)c1cnc(N)nc1,inactive: -5.37%
6,CCCC12CN3CC(C)(CN(C1)C3c1cn(C)c3ccccc13)C2=O (configuration not stated),inactive: 0.458%
7,CCc1cccc(NCc2ccccc2-c2nnc(-c3ccccc3Cl)o2)c1,inactive: 3.28%
8,CCn1c(CN2CCOCC2)nc2cc(NC(=O)c3cc(OC)c(OC)c(OC)c3)ccc21,inactive: -2.72%
9,CSc1nn(Cc2ccc(Br)cc2)c(N(C(C)=O)C(C)=O)c1S(=O)(=O)c1ccccc1,inactive: 0.0646%
10,COc1ccccc1N1CCN(C(=O)Cc2c(C(=O)O)c(C)cn2C)CC1,inactive: -5.31%
11,COc1ccc(-c2cc(C(=O)NCc3ccccc3)c3c(-c4ccccc4)[nH]nc3n2)cc1,inactive: 7.79%
12,CC1CCN(C(=O)Cn2ncc3c4ccccc4n(Cc4ccc(Cl)cc4)c3c2=O)CC1,inactive: -1.13%
13,CCCCSCCCNC(=O)C1CCC(CNS(=O)(=O)c2ccccc2)CC1 (configuration not stated),inactive: -0.852%
14,CC(=O)c1ccc(NC(=O)c2cc(-c3ccc(Cl)c(Cl)c3)on2)cc1,inactive: 0.944%
15,CCc1ccccc1NC(=O)C1CCCN(c2nnc(-n3c(C)ccc3C)s2)C1 (configuration not stated),inactive: -5.89%
16,CCOc1ccc(CCNC(=O)c2ccc3nc(CC)c(CC)nc3c2)cc1,inactive: 0.226%
17,COc1ccccc1-c1cc(C(=O)Nc2cc(Cl)ccc2O)no1,inactive: -28.7%
18,O=C(Nc1ccc(F)cc1F)c1ccc2c(=O)n3c(nc2c1)CCCCC3,inactive: -0.167%
19,CCOc1ccc(OCC(=O)Nc2c(C(=O)Nc3ccc(C)cc3)oc3ccccc23)cc1,inactive: 3.39%
20,CCOc1ccc(CNC(=O)c2cnc3sc(N4CCC(C)CC4)nn3c2=O)cc1OC,inactive: -13.2%
21,O=S(=O)(Nc1cccc(-c2ccc(N3CCCCC3)nn2)c1)c1ccc(Cl)s1,inactive: 1.7%
22,Fc1ccc(CNc2nc3ccc(Cl)cc3n3nnnc23)cc1,inactive: -13.1%
23,COc1cccc(-n2c(=O)c3sc4ccccc4c3n(CC(=O)Nc3cccc(Cl)c3)c2=O)c1,inactive: -1.15%
24,CCSc1ncc(Cl)c(C(=O)N2CCN(c3ccc(OC)cc3)CC2)n1,inactive: 6.44%
25,C=Cc1ccc(Cn2c(=O)n(-c3cccc(C)c3)c(=O)c3c2c2cc(C)ccc2n3C)cc1,inactive: -6.38%

row,Structure (SMILES),"activity change, negative = inhibition"
1,O=C(Nc1ccc2c(c1)N(C1CCCC1)C(=O)c1ccccc1S2)c1ccc(F)cc1,inactive: -5.39%
2,CCN(CC)CCCNC(=O)c1ccc2nc(CCc3ccccc3)oc2c1,inactive: 1.33%
3,O=S(=O)(c1cccc(Cl)c1)c1nnn2c1nc(NC1CCCCCC1)c1sccc12,inactive: -12.4%
4,Cc1ccc(S(=O)(=O)c2c(C)nn(-c3ccccc3)c2OC(=O)c2ccccc2F)cc1,inactive: 6.88%
5,CCN(CC)c1ccc(NC(=O)C2COc3ccc(OC)cc3C2)c(C)c1 (configuration not stated),inactive: -14.2%
6,CCN(c1ccc(Cl)cc1)S(=O)(=O)c1nnc(NC(=O)C(C)C)s1,inactive: -1.13%
7,CCC(=O)Oc1ccc(-c2nc3ccccc3c(=O)o2)cc1,inactive: -0.909%
8,Cc1ccc(-n2ncc(C(=O)N3CCN(Cc4ccccc4)CC3)c2C2CCN(C(=O)OC(C)(C)C)CC2)c(C)c1,inactive: -20.5%
9,CC(C)(C)OC(=O)N1CCC(c2c(C(=O)NCc3ccco3)cnn2-c2ccc(F)cc2)CC1,inactive: -0.843%
10,Cc1ccc(C)c(S(=O)(=O)c2nnn3c2nc(NCc2ccc4c(c2)OCO4)c2sccc23)c1,inactive: -1.98%
11,CN(C)c1ccc(NC(=O)Cn2c(SCc3ccccc3F)nc3cccnc32)cc1,inactive: -11.3%
12,COc1ccc(-c2nnc(SCC(=O)Nc3ccc(F)cc3)s2)cc1,inactive: -0.399%
13,O=c1c2sc3ccccc3c2n(Cc2ccccc2F)c(=O)n1CCc1ccccc1,inactive: 2.7%
14,CN(C)c1ccc(C(CNS(=O)(=O)c2ccc(Br)cc2)N2CCOCC2)cc1 (configuration not stated),inactive: 5.56%
15,O=C(c1ccc2c(Cl)c3c(nc2c1)CCCC3)N1CCN(c2cccc(Cl)c2)CC1,inactive: -7.91%
16,CCc1ccc(-c2ccc(C(=O)Oc3ccc(Br)cc3)cc2)nc1,inactive: -12.8%
17,Cc1c(C)n(C)c2ccc(C(=O)NCCCN3CCCCC3)cc12,inactive: 0%
18,COc1ccc(NC(=O)C2=C(C)Nc3nc(SCc4ccccc4)nn3C2c2cc(OC)ccc2OC)cc1 (configuration not stated),inactive: -11.7%
19,Cc1ccc(-c2c(C(=O)NCCc3ccc(Cl)cc3)oc(=O)c3ccccc23)cc1,inactive: 5.95%
20,Cc1ccc(Cn2ccc(NC(=O)c3cc(-c4ccc(Cl)c(Cl)c4)on3)n2)cc1,inactive: 3.49%
21,COCCc1nn2c(=O)cc(COC(=O)c3ccc(C(C)(C)C)cc3)nc2s1,inactive: -15.1%
22,Cc1ccc(S(=O)(=O)c2nc(-c3ccc(Cl)cc3)oc2N2CCCCCC2)cc1,inactive: -4.13%
